Scores with a large standard error are left out. Not listed are two conditions whose scores span a narrow range. Read del as a deletion of the residues named and ins as an insertion between two positions. For some of these results: The data file names ogerin without a concentration.
B1: GPR68, Q15743 (parent)
chain: MGNITADNSSMSCTIDHTIHQTLAPVVYVTVLVVGFPANCLSLYFGYLQIKARNELGVYLCNLTVADLFYICSLPFWLQYVLQHDNWSHGDLSCQVCGILLYENIYISVGFLCCISVDRYLAVAHPFRFHQFRTLKAAVGVSVVIWAKELLTSIYFLMHEEVIEDENQHRVCFEHYPIQAWQRAINYYRFLVGFLFPICLLLASYQGILRAVRRSHGTQKSRKDQIQRLVLSTVVIFLACFLPYHVLLLVRSVWEASCDFAKGVFNAYHFSLLLTSFNCVADPVLYCFVSETTHRDLARLRGACLAFLTCSRTGRAREAYPLGAPEASGKSGAQGEEPELLTKLHPAFQTPNSPGSGGFPTGRLA

Legend:
[1] = variants of: B1; assay: cAMP reporter score (Enrich2 score, wild type = 0); higher = more signal; HEK293T, FACS bins
[2] = variants of: B1; assay: surface expression score (Enrich2 score, wild type = 0); higher = more signal; HEK293T, FACS bins

Variant	cAMP reporter score ([1]; pH 5.5)	cAMP reporter score ([1]; pH 6.5, modulator: ogerin)	cAMP reporter score ([1]; pH 6)	cAMP reporter score ([1]; pH 6, modulator: ogerin)	surface expression score [2]
MGNITADNSSMSCTIDHTIHQTLAPVVYVTVLVVGFPANCLSLYFGYLQIKARNELGVYLCNLTVADLFYICSLPFWLQYVLQHDNWSHGDLSCQVCGILLYENIYISVGFLCCISVDRYLAVAHPFRFHQFRTLKAAVGVSVVIWAKELLTSIYFLMHEEVIEDENQHRVCFEHYPIQAWQRAINYYRFLVGFLFPICLLLASYQGILRAVRRSHGTQKSRKDQIQRLVLSTVVIFLACFLPYHVLLLVRSVWEASCDFAKGVFNAYHFSLLLTSFNCVADPVLYCFVSETTHRDLARLRGACLAFLTCSRTGRAREARPLGAPEASGKSGAQGEEPELLTKLHPAFQTPNSPGSGGFPTGRLA [Y320R]	0.565	-0.433			
MGNITADNSSMSCTIDHTIHQTLAPVVYVTVLVVGFPANCLSLYFGYLQIKARNELGVYLCNLTVADLFYICSLPFWLQYVLQHDNWSHGDLSCQVCGILLYENIYISVGFLCCISVDRYLAVAHPFRFHQFRTLKAAVGVSVVIWAKELLTSIYFLMHEEVIEDENQHRVCFEHYPIQAWQRAINYYRFLVGFLFPICLLLASYQGILRAVRRSHGTQKSRKDQIQRLVLSTVVIFLACFLPYHVLLLVRSVWEASCDFAKGVFNAYHFSLLLTSFNCVADPVLYCFVSETTHRDLARLRGACLAFLTCSRTGRAREASPLGAPEASGKSGAQGEEPELLTKLHPAFQTPNSPGSGGFPTGRLA [Y320S]	-0.281	-0.091	-0.293	0.112	0.048
MGNITADNSSMSCTIDHTIHQTLAPVVYVTVLVVGFPANCLSLYFGYLQIKARNELGVYLCNLTVADLFYICSLPFWLQYVLQHDNWSHGDLSCQVCGILLYENIYISVGFLCCISVDRYLAVAHPFRFHQFRTLKAAVGVSVVIWAKELLTSIYFLMHEEVIEDENQHRVCFEHYPIQAWQRAINYYRFLVGFLFPICLLLASYQGILRAVRRSHGTQKSRKDQIQRLVLSTVVIFLACFLPYHVLLLVRSVWEASCDFAKGVFNAYHFSLLLTSFNCVADPVLYCFVSETTHRDLARLRGACLAFLTCSRTGRAREATPLGAPEASGKSGAQGEEPELLTKLHPAFQTPNSPGSGGFPTGRLA [Y320T]	1.98		0.517	0.626	0.714
MGNITADNSSMSCTIDHTIHQTLAPVVYVTVLVVGFPANCLSLYFGYLQIKARNELGVYLCNLTVADLFYICSLPFWLQYVLQHDNWSHGDLSCQVCGILLYENIYISVGFLCCISVDRYLAVAHPFRFHQFRTLKAAVGVSVVIWAKELLTSIYFLMHEEVIEDENQHRVCFEHYPIQAWQRAINYYRFLVGFLFPICLLLASYQGILRAVRRSHGTQKSRKDQIQRLVLSTVVIFLACFLPYHVLLLVRSVWEASCDFAKGVFNAYHFSLLLTSFNCVADPVLYCFVSETTHRDLARLRGACLAFLTCSRTGRAREAVPLGAPEASGKSGAQGEEPELLTKLHPAFQTPNSPGSGGFPTGRLA [Y320V]	0.75	1.6		1.42	-0.089
MGNITADNSSMSCTIDHTIHQTLAPVVYVTVLVVGFPANCLSLYFGYLQIKARNELGVYLCNLTVADLFYICSLPFWLQYVLQHDNWSHGDLSCQVCGILLYENIYISVGFLCCISVDRYLAVAHPFRFHQFRTLKAAVGVSVVIWAKELLTSIYFLMHEEVIEDENQHRVCFEHYPIQAWQRAINYYRFLVGFLFPICLLLASYQGILRAVRRSHGTQKSRKDQIQRLVLSTVVIFLACFLPYHVLLLVRSVWEASCDFAKGVFNAYHFSLLLTSFNCVADPVLYCFVSETTHRDLARLRGACLAFLTCSRTGRAREAWPLGAPEASGKSGAQGEEPELLTKLHPAFQTPNSPGSGGFPTGRLA [Y320W]	1.18	-0.075		1.03	1.41

— the GPR68 mutational scans of Howard et al. (2025)
